From PubChem BioAssay AID2546 (National Center for Advancing Translational Sciences (NCATS), 2010)
About 11,000 (3.5%) of roughly 310,000 compounds were called active. The shares of active, inactive and inconclusive entries below differ from those in the screen. The call rests on the fitted dose curve; in most records, active means well fitted inhibition curve with a large enough effect; inconclusive means small, poorly fitted or top-dose-only effect, or effect the other way; inactive means flat fitted curve, though single readings scatter. No potency is given beside an inconclusive call; the fits are too rough.

Assay: VP16 counterscreen qHTS for inhibitors of ROR gamma transcriptional activity;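 further: Gal4-VP16 expression switched on by copper sulfate through the metallothionein promoter; nearly all actives have a fitted effect of over 50% in size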
Details: Drosophila S2 Gal4-VP16 UAS-luciferase, luminescence, 20 h; series mostly up to 53.6 µM
Potency means the concentration at half of the fitted maximal effect; tags describe the fitted curve by direction and shape.

SMILES | Potency
Cc1cc(Cl)ccc1NC(=S)N(CCCN1CCOCC1)Cc1cccs1 | inconclusive [inhibitor, single point]
CCN(CC)S(=O)(=O)c1cccc(C(=O)Nc2cc(C)cc(C)c2)c1 | inactive
CNCc1ccccc1Sc1ccc(OC)cc1 | inactive
COc1cc(NC(=O)c2cc(OC)c(OC)c(OC)c2)c(OC)cc1NC(=O)CN1CCCCC1 | inactive
COc1ccc(-n2c(C)nc3c(cnn3-c3ccc(C)c(C)c3)c2=O)cc1 | inactive
CN(C)S(=O)(=O)c1ccc(C(=O)OCn2nnc3ccccc3c2=O)cc1 | inconclusive [inhibitor, single point]
CC(C)(C)OC(=O)[C@H](Cc1ccccc1)NC(=O)c1nc[nH]c1C(=O)N[C@@H](Cc1ccccc1)C(=O)OC(C)(C)C | inconclusive [inhibitor, single point]
CCCNC(=O)c1oc2ccc3c(c2c1C)C(O)CC(C)(C)O3 (stereo unspecified) | inactive
CCN(CC)Cc1c(O)ccc2c(=O)c(Oc3ccccc3OC)c(C)oc12 | inconclusive [inhibitor, partial curve, poor fit]
CCc1cccc(NC(=O)Cn2c(-c3ccccc3)cc(C(C)=O)c2C)c1 | inconclusive [inhibitor, single point]
Cc1ccc(/C=C2/SC(=S)N(CCC(=O)N3CCOCC3)C2=O)cc1 | inconclusive [activator, partial curve]
CN1CCSc2ccc(C(=O)NCc3ccccc3F)cc21 | inconclusive [inhibitor, partial curve]
CCOC(=O)c1cc(Br)c(=O)n2ccccc12 | inconclusive [inhibitor, single point]
N=c1oc2ccccc2cc1-c1nc(-c2ccc(Cl)cc2)cs1 | inconclusive [activator, full curve]
Cc1noc(/C=C/N(C)C)c1S(=O)(=O)N1CCN(c2ccc(F)cc2)CC1 | inconclusive [inhibitor, single point]
Nc1nonc1-n1nnc(C(=O)N/N=C/c2cc(Br)ccc2O)c1CSC1=NCCS1 | active: 4.47 µM
Cc1nc(NC(=S)NC(=O)c2cccs2)ccc1Br | active: 12.6 µM
CCOc1ccc(/C=N/NC(=O)c2c(-c3ccccc3)noc2C)cc1 | inconclusive [inhibitor, single point]
COc1ccc(C(=O)NC2CCCc3ccccc32)cc1OC1CCN(C(C)=O)CC1 (stereo unspecified) | inactive
Cc1ccc(S(=O)(=O)CNC(=S)c2ccc3ccccc3c2)cc1 | inconclusive [inhibitor, single point]
Cc1[nH]n(-c2ccccc2)c(=O)c1/C=N/N1C(=O)c2cccc3cccc(c23)C1=O | inconclusive [inhibitor, single point]
CCOc1ccc(C2C3=C(Nc4nc(N)[nH]c(=O)c42)c2ccccc2C3=O)cc1 (stereo unspecified) | inactive
CCCc1c(C(=O)N/N=C(\C)CCc2ccccc2)nnn1-c1nonc1N | inactive

SMILES | Potency
COc1ccc(/C=N/Nc2nnc(Cc3ccccc3)c(=O)[nH]2)cc1OC | inactive
Cc1ccc(S(=O)(=O)Nc2cnc3ccccc3c2)cc1 | inconclusive [inhibitor, single point]
Cc1c(C(=O)N/N=C/c2cccs2)nnn1-c1nonc1N | inconclusive [inhibitor, single point]
Cc1nc2ccccc2c(=O)n1/N=C/c1cc(Br)ccc1O | inconclusive [inhibitor, single point]
CCOc1cc(/C=N/n2cnnc2)cc(Br)c1O | inconclusive [inhibitor, single point]
CCN1CCCC1CNC(=O)c1cc(COc2ccc(C)c(C)c2)on1 (stereo unspecified) | inconclusive [inhibitor, single point]
Cc1cc(C)c(S(=O)(=O)c2ccccc2C)c(SCC(C)C)n1 | inconclusive [inhibitor, single point]
C=C(C)CNC(=S)N/N=C1\CCCCc2ccccc21 | active: 1.78 µM
Cc1ccc(OCc2nnc(SCC(=O)c3cccc([N+](=O)[O-])c3)n2C)cc1 | inconclusive [inhibitor, single point]
CC(=O)Nc1ccc(NC2=Nc3ccccc3N3C2=Nc2c(c(C)nn2-c2ccccc2)C3c2ccccc2)cc1 (stereo unspecified) | active: 0.891 µM
C=CCNC(=O)c1ccccc1NC(=O)c1ccc(Cl)c(S(=O)(=O)Nc2cc(C)ccc2C)c1 | inactive
CC(C)NC(=S)N/N=C1\CCCCC1C1CCCCC1 (stereo unspecified) | active: 3.55 µM
Cc1cccc(NC(=S)NC2CCCCCC2)c1C | active: 7.08 µM
Cc1ccc(CSc2nc3ncccc3[nH]2)cc1 | inconclusive [inhibitor, single point]
COc1cc2[nH]c(=S)n(C3CCN(Cc4ccccc4)CC3)c(=O)c2cc1OC | inconclusive [inhibitor, single point]
CCOCc1c(C(=O)OCC(=O)Nc2ccc(C)c(S(=O)(=O)N(C)C)c2)oc2ccccc12 | inconclusive [inhibitor, partial curve]
Cc1ccc(/C=N/NC(=O)CCn2nc(C)cc2C)c(C)c1 | inactive
O=C(CCC(=O)Nc1cc(C(F)(F)F)ccc1Cl)N/N=C\c1cc([N+](=O)[O-])ccc1O | active: 8.91 µM
C=CCOc1c(Cl)cc(C(=S)N2CCCC2)cc1OCC | inconclusive [inhibitor, single point]
COc1cc(/C=C/c2ccc3cccc(O)c3n2)cc(Br)c1OC | active: 5.01 µM
CC1OC(Oc2c(-c3cc(O)c(O)c(O)c3)oc3cc(O)cc(O)c3c2=O)C(O)C(O)C1O (stereo unspecified) | inactive
COc1ccccc1N1C(=O)CC(Sc2nccc(C)n2)C1=O (stereo unspecified) | inconclusive [inhibitor, single point]
Cc1c(/C=N/N2C(=O)C3C4C=CC(C4)C3C2=O)c2ccccc2n1C (stereo unspecified) | inconclusive [activator, single point]
